Target: the molecule itself
Assay: SEC; proteins pre-incubated in detergent (PS20, C12E8 and others, at the multiples of CMC given in the legends); Superdex 200 Increase 10/300 GL, 50 mM sodium phosphate pH 7.0

B1: BAX ([…], […], C62S, C126S) (domain or fragment)
chain: not shown
notes: human BAX, […], without the C-terminal transmembrane helix; cysteines mutated to serines; Theoretical mass 18933.65 Da; source: E. coli C41(DE3), purified (chitin resin, intein self-cleavage with DTT, SEC); not shown: intein, C-terminal, cleaved
Does B1 bind?
Result: binds

— article doi:10.1101/756874, “Spontaneous oligomerization of BAK/BAX is suppressed by hetero-dimerization with MCL-1” (bioRxiv, 2019)
